These are yes or no findings as the source states them, for the method shown. For some assays here: Binding seen in cells or lysates may run through a third protein. Some entries that bind do so weakly or less than the wild type. For some assays here: Where a sequence is shown, tags or fusion partners need not be part of it. Each block holds one molecule with its values, some of them ahead of it.
Experiments:
Myc-STAT1 = Myc-STAT1 (UniProt P42224); experiment: co-IP; both partners tagged and co-transfected in HEK293T cells; lysis buffer 150 mM NaCl, 20 mM Tris-HCl pH 7.4, 0.5 mM EDTA, 1% NP-40; protein G agarose, 4 C; some panels with IFNα (1000 IU/ml, 15 min) or Flag-LUBAC overexpression
Myc-STAT1-K511/652R [1] = target: Myc-STAT1-K511/652R (UniProt P42224); experiment: as above
Myc-STAT1-K511R = Myc-STAT1-K511R (UniProt P42224); experiment: as above
Myc-STAT1-K652R = Myc-STAT1-K652R (UniProt P42224); experiment: as above
[2] = target: STAT1 with deletion of the TAD domain (amino acids, 703–750) (UniProt P42224); experiment: as above
STAT1-Y701F = STAT1-Y701F (UniProt P42224); experiment: as above
HA-IFNAR2 [3] = target: T1, HA-IFNAR2 (UniProt P48551); experiment: pull-down; in vitro binding assay: Flag-STAT1 (WT or DM) immunoprecipitated from HEK293T and eluted with Flag peptides, mixed with HA-IFNAR2 immunoprecipitates (HA antibody) at 4 °C; immunoblot with anti-Flag or anti-HA; both purified
T1 sequence: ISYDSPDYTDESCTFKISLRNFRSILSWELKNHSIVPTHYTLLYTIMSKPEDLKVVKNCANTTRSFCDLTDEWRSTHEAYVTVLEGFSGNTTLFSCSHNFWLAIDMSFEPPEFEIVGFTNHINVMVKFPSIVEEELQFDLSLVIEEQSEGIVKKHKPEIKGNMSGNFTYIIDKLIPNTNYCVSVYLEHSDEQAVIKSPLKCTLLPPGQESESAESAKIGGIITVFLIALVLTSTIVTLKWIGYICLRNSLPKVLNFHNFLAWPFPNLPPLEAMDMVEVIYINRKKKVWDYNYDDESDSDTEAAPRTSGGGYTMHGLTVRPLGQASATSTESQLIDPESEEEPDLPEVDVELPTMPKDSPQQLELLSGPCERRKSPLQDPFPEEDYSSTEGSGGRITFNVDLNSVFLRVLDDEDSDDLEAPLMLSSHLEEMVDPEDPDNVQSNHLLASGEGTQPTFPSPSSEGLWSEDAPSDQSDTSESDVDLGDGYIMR

Amino acid sequences for entries named in this document (tags omitted). A change or cut given only in a name is not applied to a line headed by its entry. Chains listed by the source or under a name are the forms on record and can include a tag or linker. Residues count along the entry.
UniProt P42224: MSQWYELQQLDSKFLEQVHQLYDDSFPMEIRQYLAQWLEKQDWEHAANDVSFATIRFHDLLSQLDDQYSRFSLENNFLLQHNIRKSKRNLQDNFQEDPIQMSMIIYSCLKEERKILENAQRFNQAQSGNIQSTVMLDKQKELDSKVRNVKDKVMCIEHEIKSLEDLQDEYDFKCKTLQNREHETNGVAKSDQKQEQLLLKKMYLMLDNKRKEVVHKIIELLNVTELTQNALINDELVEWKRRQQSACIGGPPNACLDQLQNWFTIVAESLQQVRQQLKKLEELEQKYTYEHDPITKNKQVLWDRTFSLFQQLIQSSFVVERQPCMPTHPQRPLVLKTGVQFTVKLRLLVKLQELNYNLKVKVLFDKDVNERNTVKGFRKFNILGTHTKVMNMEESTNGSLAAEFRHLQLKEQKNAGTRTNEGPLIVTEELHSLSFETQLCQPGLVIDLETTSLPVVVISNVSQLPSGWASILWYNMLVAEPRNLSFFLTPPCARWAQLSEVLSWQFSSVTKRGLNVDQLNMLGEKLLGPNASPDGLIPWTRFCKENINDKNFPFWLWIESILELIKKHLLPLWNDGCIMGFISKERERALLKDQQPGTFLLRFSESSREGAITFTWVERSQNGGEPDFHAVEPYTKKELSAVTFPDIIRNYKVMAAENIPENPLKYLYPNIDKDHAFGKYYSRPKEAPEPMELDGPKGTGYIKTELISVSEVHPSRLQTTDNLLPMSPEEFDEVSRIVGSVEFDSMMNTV
STAT1 with deletion of the TAD domain (amino acids, 703–750): residues 1-702 of P42224
Myc-STAT1-K511/652R (P42224, form named): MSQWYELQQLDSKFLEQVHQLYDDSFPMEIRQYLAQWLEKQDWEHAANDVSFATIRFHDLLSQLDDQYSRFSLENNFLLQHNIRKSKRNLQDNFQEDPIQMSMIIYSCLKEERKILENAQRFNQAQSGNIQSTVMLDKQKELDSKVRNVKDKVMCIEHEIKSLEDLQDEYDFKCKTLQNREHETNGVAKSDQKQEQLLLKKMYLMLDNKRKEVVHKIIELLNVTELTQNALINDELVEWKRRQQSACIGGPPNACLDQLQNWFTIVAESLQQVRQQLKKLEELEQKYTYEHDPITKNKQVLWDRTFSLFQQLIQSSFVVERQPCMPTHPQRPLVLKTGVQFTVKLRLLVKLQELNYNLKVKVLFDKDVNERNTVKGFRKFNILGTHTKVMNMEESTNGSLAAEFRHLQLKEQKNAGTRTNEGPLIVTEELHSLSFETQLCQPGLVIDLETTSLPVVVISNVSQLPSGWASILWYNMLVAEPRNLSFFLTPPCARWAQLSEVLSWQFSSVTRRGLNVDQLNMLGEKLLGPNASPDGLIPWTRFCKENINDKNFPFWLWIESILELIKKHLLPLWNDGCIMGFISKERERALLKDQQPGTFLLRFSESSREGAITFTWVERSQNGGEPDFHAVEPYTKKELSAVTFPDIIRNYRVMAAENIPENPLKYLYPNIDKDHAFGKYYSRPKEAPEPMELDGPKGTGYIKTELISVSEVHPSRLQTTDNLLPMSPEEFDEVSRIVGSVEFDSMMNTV
UniProt P23458: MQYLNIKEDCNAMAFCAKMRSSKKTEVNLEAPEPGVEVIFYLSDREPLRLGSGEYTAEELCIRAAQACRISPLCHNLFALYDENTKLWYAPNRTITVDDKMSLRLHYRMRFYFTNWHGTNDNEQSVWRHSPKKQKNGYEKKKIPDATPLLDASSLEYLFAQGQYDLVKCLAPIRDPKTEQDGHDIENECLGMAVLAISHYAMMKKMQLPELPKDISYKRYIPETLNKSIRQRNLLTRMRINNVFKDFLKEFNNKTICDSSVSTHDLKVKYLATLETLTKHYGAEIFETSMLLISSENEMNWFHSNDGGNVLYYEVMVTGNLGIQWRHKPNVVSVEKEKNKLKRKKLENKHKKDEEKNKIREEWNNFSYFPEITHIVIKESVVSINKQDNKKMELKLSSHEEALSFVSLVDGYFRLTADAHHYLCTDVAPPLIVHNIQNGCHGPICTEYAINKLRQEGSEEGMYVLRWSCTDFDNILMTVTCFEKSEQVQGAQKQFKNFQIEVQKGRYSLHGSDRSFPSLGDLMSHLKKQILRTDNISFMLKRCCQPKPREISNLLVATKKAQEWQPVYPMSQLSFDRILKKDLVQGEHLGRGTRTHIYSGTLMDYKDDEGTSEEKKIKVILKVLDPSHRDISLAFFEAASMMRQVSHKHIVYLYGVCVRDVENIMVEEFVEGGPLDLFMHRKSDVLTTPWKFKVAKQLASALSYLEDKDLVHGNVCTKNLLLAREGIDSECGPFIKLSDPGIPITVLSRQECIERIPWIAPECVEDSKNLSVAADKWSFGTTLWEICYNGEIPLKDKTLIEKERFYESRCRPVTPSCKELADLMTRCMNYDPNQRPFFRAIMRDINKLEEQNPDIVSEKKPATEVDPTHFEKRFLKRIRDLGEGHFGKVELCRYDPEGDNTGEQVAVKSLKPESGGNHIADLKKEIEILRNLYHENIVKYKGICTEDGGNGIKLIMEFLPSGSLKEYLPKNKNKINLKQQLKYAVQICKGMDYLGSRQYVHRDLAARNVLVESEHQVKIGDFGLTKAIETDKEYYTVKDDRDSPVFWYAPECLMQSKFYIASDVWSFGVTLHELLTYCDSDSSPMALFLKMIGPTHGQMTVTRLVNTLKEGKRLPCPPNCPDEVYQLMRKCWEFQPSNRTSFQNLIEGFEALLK
UniProt Q96EP0: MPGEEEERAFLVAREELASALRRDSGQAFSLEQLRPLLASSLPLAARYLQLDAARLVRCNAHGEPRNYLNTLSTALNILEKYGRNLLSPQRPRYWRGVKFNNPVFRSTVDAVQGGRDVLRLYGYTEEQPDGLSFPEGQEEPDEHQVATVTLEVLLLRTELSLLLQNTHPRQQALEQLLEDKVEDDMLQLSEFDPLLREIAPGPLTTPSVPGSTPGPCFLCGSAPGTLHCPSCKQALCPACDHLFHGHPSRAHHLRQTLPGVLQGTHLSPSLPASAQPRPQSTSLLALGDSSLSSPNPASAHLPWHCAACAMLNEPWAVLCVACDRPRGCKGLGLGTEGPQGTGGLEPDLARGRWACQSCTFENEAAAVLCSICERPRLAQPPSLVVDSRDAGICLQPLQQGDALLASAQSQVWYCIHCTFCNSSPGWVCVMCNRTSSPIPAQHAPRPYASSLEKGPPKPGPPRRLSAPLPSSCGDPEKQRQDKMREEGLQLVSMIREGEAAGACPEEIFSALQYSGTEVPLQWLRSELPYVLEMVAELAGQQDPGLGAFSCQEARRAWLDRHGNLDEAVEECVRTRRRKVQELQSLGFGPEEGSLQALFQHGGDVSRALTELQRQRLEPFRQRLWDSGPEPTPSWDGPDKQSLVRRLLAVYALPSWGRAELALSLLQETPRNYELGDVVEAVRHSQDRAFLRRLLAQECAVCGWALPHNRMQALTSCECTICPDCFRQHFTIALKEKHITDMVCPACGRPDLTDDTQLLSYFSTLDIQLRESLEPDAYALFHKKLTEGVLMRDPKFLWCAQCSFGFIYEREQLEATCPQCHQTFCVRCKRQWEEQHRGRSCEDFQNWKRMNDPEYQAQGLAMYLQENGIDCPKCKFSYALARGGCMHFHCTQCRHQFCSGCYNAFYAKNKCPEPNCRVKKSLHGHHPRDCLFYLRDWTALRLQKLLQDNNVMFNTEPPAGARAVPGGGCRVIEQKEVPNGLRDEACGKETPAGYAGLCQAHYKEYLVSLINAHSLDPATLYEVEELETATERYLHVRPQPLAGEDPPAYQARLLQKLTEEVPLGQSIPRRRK
UniProt Q96BN8: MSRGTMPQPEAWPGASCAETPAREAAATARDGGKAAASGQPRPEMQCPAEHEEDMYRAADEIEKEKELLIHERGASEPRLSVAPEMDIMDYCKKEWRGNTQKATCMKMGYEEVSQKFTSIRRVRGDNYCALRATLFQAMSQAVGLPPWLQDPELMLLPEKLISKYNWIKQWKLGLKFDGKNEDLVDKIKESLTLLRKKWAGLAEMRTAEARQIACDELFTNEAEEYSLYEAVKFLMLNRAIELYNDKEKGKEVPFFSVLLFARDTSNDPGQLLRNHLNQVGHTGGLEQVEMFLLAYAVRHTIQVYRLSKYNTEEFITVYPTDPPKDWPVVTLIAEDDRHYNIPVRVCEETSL

HA-IFNAR2 [4] = target: T1, HA-IFNAR2; experiment: co-IP; both partners tagged and co-transfected in HEK293T cells; lysis buffer 150 mM NaCl, 20 mM Tris-HCl pH 7.4, 0.5 mM EDTA, 1% NP-40; protein G agarose, 4 C; some panels with IFNα (1000 IU/ml, 15 min) or Flag-LUBAC overexpression
[5] = target: endogenous STAT1 (human (endogenous in 2fTGH, HEK293T and HeLa)) (UniProt P42224); experiment: co-IP
[6] = target: endogenous JAK1 (human (endogenous in HEK293T and HeLa)) (UniProt P23458); experiment: co-IP
Myc-STAT1-K511/652R [7] = target: Myc-STAT1-K511/652R (UniProt P42224); experiment: co-IP; one plate of STAT1-deficient U3A cells cotransfected with HA-IFNAR2, Flag-STAT1-WT and Myc-STAT1-DM, treated with IFNα (1000 IU/ml, 15 min); STAT1 forms pulled down separately with Flag or Myc antibodies, HA-IFNAR2 detected

binding (Myc-STAT1): binds
binding (Myc-STAT1-K511/652R [1]): binds
binding (Myc-STAT1-K511R): binds
binding (Myc-STAT1-K652R): binds
binding [2]: no binding
binding (STAT1-Y701F): binds
Molecule: Flag-HOIP (from UniProt Q96EP0 1-1072) (enzyme)

binding (HA-IFNAR2 [3]): binds
Molecule: Flag-STAT1 (DM) (from UniProt P42224 1-750)

binding (HA-IFNAR2 [4]): binds
Molecule: Myc-STAT1-K511/652R (from UniProt P42224 1-750)

binding (HA-IFNAR2 [4]): binds
Molecule: Myc-STAT1-K511R (from UniProt P42224 1-750)

binding (HA-IFNAR2 [4]): binds
Molecule: Myc-STAT1-K652R (from UniProt P42224 1-750)

binding [5]: binds
Molecule: OTULIN (from UniProt Q96BN8 1-352) (enzyme)

binding [5]: binds
Molecule: endogenous HOIP (from UniProt Q96EP0 1-1072) (enzyme)

binding [6]: binds
Molecule: endogenous STAT1 (from UniProt P42224 1-750)

binding (Myc-STAT1-K511/652R [7]): binds
B1: HA-IFNAR2 (receptor, UniProt P48551 27-515)
chain: ISYDSPDYTDESCTFKISLRNFRSILSWELKNHSIVPTHYTLLYTIMSKPEDLKVVKNCANTTRSFCDLTDEWRSTHEAYVTVLEGFSGNTTLFSCSHNFWLAIDMSFEPPEFEIVGFTNHINVMVKFPSIVEEELQFDLSLVIEEQSEGIVKKHKPEIKGNMSGNFTYIIDKLIPNTNYCVSVYLEHSDEQAVIKSPLKCTLLPPGQESESAESAKIGGIITVFLIALVLTSTIVTLKWIGYICLRNSLPKVLNFHNFLAWPFPNLPPLEAMDMVEVIYINRKKKVWDYNYDDESDSDTEAAPRTSGGGYTMHGLTVRPLGQASATSTESQLIDPESEEEPDLPEVDVELPTMPKDSPQQLELLSGPCERRKSPLQDPFPEEDYSSTEGSGGRITFNVDLNSVFLRVLDDEDSDDLEAPLMLSSHLEEMVDPEDPDNVQSNHLLASGEGTQPTFPSPSSEGLWSEDAPSDQSDTSESDVDLGDGYIMR
